# Measured values published in publication PMC7819943, “Rice protein-binding microarrays: a tool to detect cis-acting elements near promoter regions in rice”.
# This is one part of the list.
# Target: T1, OsWOX13 (Oryza sativa, UniProt Q5QMM3 1-267)
# T1 sequence: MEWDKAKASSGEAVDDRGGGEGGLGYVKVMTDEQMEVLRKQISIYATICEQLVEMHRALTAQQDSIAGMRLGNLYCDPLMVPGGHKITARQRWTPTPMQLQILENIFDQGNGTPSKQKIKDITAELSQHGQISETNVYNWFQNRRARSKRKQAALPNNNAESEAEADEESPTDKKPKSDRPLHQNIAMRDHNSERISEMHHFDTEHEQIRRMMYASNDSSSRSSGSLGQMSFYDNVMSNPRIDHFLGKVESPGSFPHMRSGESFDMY
# Assay: protein-binding microarray (RPBM); PBS, 2% BSA, 51.3 ng/ul salmon testes DNA, 50 uM zinc acetate, 200 nM TF, 25 C, 1 h; high values mean tight binding
# Details: protein: recombinant; tags: N-terminal polyhistidine and DsRed monomer fusion (pET32a); label: CyDye5-dUTP incorporated in the synthesized complementary strand; 3' TTTTT single-stranded linker to array surface; dsDNA, one strand shown
# Summary of the method: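 Transcription factors, each fused N-terminally to a polyhistidine tag and DsRed, were expressed in E. coli BL21-CodonPlus and purified on Ni–NTA. A custom Agilent array was made double-stranded by primer extension with Cy5-dUTP and blocked with 2% BSA. It was incubated with 200 nM protein in PBS, 2% BSA, salmon testes DNA and 50 µM zinc acetate at 25 °C for 1 h, then washed. The binding signal is per-feature fluorescence intensity (arbitrary units) read on an Axon 4000B scanner.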
row,Sequence,binding signal
1,CTGATGACAATACTGAACAGTCACTCAGGGAAGACCGTGGCGGAGTCACCTAGTGCAG,3800 fluorescence intensity (a.u.)
2,AATATATGATTAGTTGAGTATTAATTATTTTAAATTTCAACGGAGTCACCTAGTGCAG,21900 fluorescence intensity (a.u.)
3,AAAATTATGGATTGGATGATTAATCACTGATAGGTAGTACCGGAGTCACCTAGTGCAG,56900 fluorescence intensity (a.u.)
4,ACAAATTGGTCACTGGCTGAATAGTTTCTACATCAGTTAACGGAGTCACCTAGTGCAG,6570 fluorescence intensity (a.u.)
5,GAACTAATATACTTTCATCAATTTAACAAATAACAAATTCCGGAGTCACCTAGTGCAG,3600 fluorescence intensity (a.u.)
6,TTAAATGACTAATAATGGACTTTCTCCTAATCAAATCGTGCGGAGTCACCTAGTGCAG,20300 fluorescence intensity (a.u.)
7,TGATTAAAATTGACATTAAAATTATAGTTTTGTGATGACTCGGAGTCACCTAGTGCAG,19100 fluorescence intensity (a.u.)
8,GTCTTAATTGTTCCTCATGTGTTTGTATGTTGTCTGGATTCGGAGTCACCTAGTGCAG,36100 fluorescence intensity (a.u.)
9,CCCTAATTCCATTCGATTTCATTCGTACTTGTGTTGTTCGCGGAGTCACCTAGTGCAG,7030 fluorescence intensity (a.u.)
10,CTAATTTAAATTTGTCTCTTTTCTACCCTCAACCATCATTCGGAGTCACCTAGTGCAG,27200 fluorescence intensity (a.u.)
11,TTAATGATTTTATTTGAATGGATCAGGGTCCAATTTGCTGCGGAGTCACCTAGTGCAG,24500 fluorescence intensity (a.u.)
12,AGTTTGTAATAATTAAAACTCAATTAATCACATGTTATTACGGAGTCACCTAGTGCAG,11600 fluorescence intensity (a.u.)
13,GTAGATTTGTGGACAGGAAATGCAGCTCCTGAACTCATGGCGGAGTCACCTAGTGCAG,6520 fluorescence intensity (a.u.)
14,AGCAAAGGAGCAATTAACTGACAAGAGCCAGCGCGGCGTGCGGAGTCACCTAGTGCAG,3500 fluorescence intensity (a.u.)
15,GTCTGATAGATCCATTACGAGGGTCAACTTTGAATCAAAGCGGAGTCACCTAGTGCAG,19900 fluorescence intensity (a.u.)
16,AGCAATTAAGAAACACTATAATGGACACTAAATTACCATACGGAGTCACCTAGTGCAG,4070 fluorescence intensity (a.u.)
17,GCCTTAATATGAACCAATTAAAAGGAGGGCTAGCTTGATGCGGAGTCACCTAGTGCAG,9470 fluorescence intensity (a.u.)
18,CACAAAATTGTTTTATGCAAACATTTATTTGTAAGACATCCGGAGTCACCTAGTGCAG,3790 fluorescence intensity (a.u.)
19,ACTCCCTATCAATTTTCATCTCCTCTACTAAATAAGATATCGGAGTCACCTAGTGCAG,7250 fluorescence intensity (a.u.)
20,TGGGAGATAAATTGAACTTATTCCTATATAGATCAGCTTCCGGAGTCACCTAGTGCAG,6420 fluorescence intensity (a.u.)
21,TTTTCATAATTTAACTCATAAAATCAAATAAGTGAACTTTCGGAGTCACCTAGTGCAG,3740 fluorescence intensity (a.u.)

row,Sequence,binding signal
1,CAAAATTTGAATTTTGAAATTAATTTTAGAGTTGATTTGGCGGAGTCACCTAGTGCAG,33400 fluorescence intensity (a.u.)
2,CTACCGCTAATTTTACATGGGCAATAACTACGAATAAGTTCGGAGTCACCTAGTGCAG,3700 fluorescence intensity (a.u.)
3,TCTTGATTCCCAAATCATTCCGTGCTCTTCACCTAATGATCGGAGTCACCTAGTGCAG,5220 fluorescence intensity (a.u.)
4,AATTAGTGATACTAGAATTAATTACTGTGCGCACTGCCGGCGGAGTCACCTAGTGCAG,4830 fluorescence intensity (a.u.)
5,CTAATTGAAGTTGATATTTTACATCCCTTGGTCATGAACTCGGAGTCACCTAGTGCAG,27100 fluorescence intensity (a.u.)
6,CCATCACATCCGTTGGCCTAATTGATTTGTGAAGCATCAACGGAGTCACCTAGTGCAG,4240 fluorescence intensity (a.u.)
7,GTTGTTGATGTACTGATTATATGTACATCGATGTAACTGTCGGAGTCACCTAGTGCAG,11300 fluorescence intensity (a.u.)
8,TCAAATCACTGCAACATTAGATCTATAAATAGTGAAGCAGCGGAGTCACCTAGTGCAG,4870 fluorescence intensity (a.u.)
9,TATTCTAATTTTGGTCGTTATCCAAACGTTTCCATGAACACGGAGTCACCTAGTGCAG,4160 fluorescence intensity (a.u.)
10,CTAAATAACAAAGATTTCTTATTGGTGACAACTGACAAGCCGGAGTCACCTAGTGCAG,4060 fluorescence intensity (a.u.)
11,ATGATCTTTCTAAATCCAATCAAATTTCATAATGGTACTACGGAGTCACCTAGTGCAG,6080 fluorescence intensity (a.u.)
12,TTCGGTAATTTCAGCATTACACGTTGCTGAATAATTTTGACGGAGTCACCTAGTGCAG,4300 fluorescence intensity (a.u.)
13,GGGTCAATCCCTCAGGAGATTGGAAATCTTGTGAATCTCCCGGAGTCACCTAGTGCAG,10700 fluorescence intensity (a.u.)
14,ATTAGTGTCTAAACATATGATTTGATGGCAACTAAGGGCTCGGAGTCACCTAGTGCAG,7620 fluorescence intensity (a.u.)
15,GTAATTACAGCTCATGATTTTCTCTCTCTCTCTCTCTCTACGGAGTCACCTAGTGCAG,20000 fluorescence intensity (a.u.)
16,AGGGTCTCTCTCAAATTAGCACTAATTCAAACCAACGGAACGGAGTCACCTAGTGCAG,3180 fluorescence intensity (a.u.)
17,TATTTATAATTGGTATCAAACATCTGATATGATAGGGACTCGGAGTCACCTAGTGCAG,35700 fluorescence intensity (a.u.)
18,AATAGTTGATAGCAACAGTCAAGATTGTGCATTGAGGTCACGGAGTCACCTAGTGCAG,7500 fluorescence intensity (a.u.)
19,CTCTAACGAAAGGTTGGTCAAGATACGGAAACGGGAGAGGCGGAGTCACCTAGTGCAG,5100 fluorescence intensity (a.u.)
20,AACTGTTTAAATTACATGCATAGGTGATATGGCACTTAGGCGGAGTCACCTAGTGCAG,3660 fluorescence intensity (a.u.)
21,CTAAACAAAATTTAAGATGTGAAAATATCATCTCTCCAAGCGGAGTCACCTAGTGCAG,11000 fluorescence intensity (a.u.)
